Results on 1 molecule are retold here after PMC5057288 (The Journal of Cell Biology, 2016).

For test [1], the target named is T1, GST-Syntaxin4 (mouse, UniProt P70452 1-274).
T1 sequence: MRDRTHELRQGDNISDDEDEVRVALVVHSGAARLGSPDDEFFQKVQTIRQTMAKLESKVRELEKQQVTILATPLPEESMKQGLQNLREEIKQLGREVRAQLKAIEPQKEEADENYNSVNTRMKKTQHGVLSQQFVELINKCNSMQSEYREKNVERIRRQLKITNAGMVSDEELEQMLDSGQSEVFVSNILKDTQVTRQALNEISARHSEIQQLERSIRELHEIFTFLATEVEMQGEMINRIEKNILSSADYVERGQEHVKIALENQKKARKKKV
As to the kind of experiment: pull-down.

The target in test [2] is syntaxin1A–SNAP25 complex (human | mouse). As to the kind of experiment: pull-down.

B1: His-VAMP2 (domain or fragment)
chain: not shown
For B1, the binding result in test [1] and in test [2] was “binds” in each case.
